The list shows a part of the results. The list includes weakly bound sequences.
What follows are sequences tested against MaxL homodimer (UniProt P61244) (assay: universal protein-binding microarray (PBM)). Conditions: PBS-based mixture, 10 nM His-tagged protein dimer, 2% milk, 200 ng/uL BSA, 50 ng/uL salmon testes DNA, 0.02% TX-100; detection with Alexa 488 anti-His …; high values mean tight binding; most listed sequences are background and not binding sites; double strand, one strand shown.
Sequence of UniProt P61244 (P61244 whole entry): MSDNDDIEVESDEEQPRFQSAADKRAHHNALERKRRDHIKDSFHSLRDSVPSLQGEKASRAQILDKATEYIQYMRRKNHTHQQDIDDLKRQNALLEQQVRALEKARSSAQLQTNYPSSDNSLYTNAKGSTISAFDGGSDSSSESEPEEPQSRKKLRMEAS

| Sequence | binding signal (normalized occupancy) |
| --- | --- |
| CGAGGGGC | 0.0727 |
| AACGAAAA | 0.0748 |
| CGGATAGA | 0.072 |
| GAAATGTC | 0.073 |
| CGGTAAGC | 0.074 |
| AGCGTTTC | 0.077 |
| GCAAAGCC | 0.0666 |
| TCTGAACA | 0.0756 |
| GTACAGCA | 0.0793 |
| ACTACATC | 0.0832 |
| AATAACGT | 0.0823 |
| CCTGGCGA | 0.0692 |
| GAGTAGCC | 0.0702 |
| AACTCCGT | 0.0692 |
| CCCAGCGC | 0.0697 |
| GTCAATAA | 0.081 |
| ATGACGTA | 0.0763 |
| AATATCGC | 0.0767 |
| CTCCAATA | 0.075 |
| ATGCCCAA | 0.0859 |
| GACTTTAA | 0.0719 |
| AACGACAC | 0.0763 |

| Sequence | binding signal (normalized occupancy) |
| --- | --- |
| CACGCGAA | 0.105 |
| AGTCCATC | 0.0722 |
| AGTATATC | 0.0765 |
| GAGAAACA | 0.0796 |
| AATTTCGT | 0.0735 |
| GCGACGCA | 0.0736 |
| TCGTCCCA | 0.0727 |
| CAAACTTC | 0.0697 |
| TCGGAAAA | 0.0713 |
| AATGGGAC | 0.0778 |
| AAGGAATT | 0.072 |
| CTTGGAAC | 0.0691 |
| ACCGTAAT | 0.0701 |
| ATTGCGGC | 0.0715 |
| CCGTTACG | 0.0706 |
| CTGGGATA | 0.077 |
| TATGTCGA | 0.0802 |
| CGCCGAAG | 0.0696 |
| TGGAGAAA | 0.0767 |
| CCATATGC | 0.1 |
| AGCCTGTA | 0.073 |
| GAGTGTCC | 0.0728 |

| Sequence | binding signal (normalized occupancy) |
| --- | --- |
| CATGCCTA | 0.0918 |
| AGGTACCT | 0.0705 |
| AGCTTGAT | 0.0729 |
| GTGAGCAA | 0.0762 |
| CGATCGAA | 0.0684 |
| AACTGACC | 0.0708 |
| AAAAAAAT | 0.0756 |
| CTATCCGC | 0.0705 |
| AGCCAGTC | 0.0711 |
| CCGCTATA | 0.0813 |
| CCACAACC | 0.0815 |
| ACCGTAGA | 0.0703 |
| ATGTCGTA | 0.0818 |
| ATGAGTGA | 0.0795 |
| CGCGTATC | 0.0798 |
| GGTTGCTA | 0.0758 |
| ACTACTGC | 0.0761 |
| CGGAGTAC | 0.0711 |
| CTGTGGCC | 0.0788 |
| ATACTTCG | 0.0717 |
| ACCTCCTA | 0.0765 |
| AATAGCCG | 0.0715 |

| Sequence | binding signal (normalized occupancy) |
| --- | --- |
| AAACATCC | 0.0762 |
| CGAGGTAC | 0.0727 |
| CCGGGACA | 0.0695 |
| CAATAGTG | 0.0777 |
| GGGGGGAC | 0.0757 |
| CAGTTTCC | 0.0694 |
| CAACCTGG | 0.0757 |
| ACTGAACA | 0.0759 |
| GACTAATA | 0.0769 |
| AGTTATCA | 0.0747 |
| ACCATGCC | 0.0954 |
| CTACTGTA | 0.0728 |
| TACCAAGA | 0.0763 |
| CGGGAGTC | 0.0726 |
| CCCATTTA | 0.0761 |
| CTGTCGTC | 0.0717 |
| ACTATAAA | 0.0823 |
| AACCTGGA | 0.0744 |
| ATAGCGAG | 0.0712 |
| AGACGTCT | 0.0713 |
